The full ranking holds about 2,300 sequences; the median of “median log2 fold change of GCK-ALFA target abundance (FLAG IP / Myc IP barcode read proportion)” is about 0.095, and the lowest 2% start at about -0.47. Some of the results follow.
B1: LC3A_28_779 (protein)
chain: NELKKNVEAALKKAKEAAEKGEEVTLTITIPKDATKEDIEYVAEALEEIAKLSEKMKRVDIVIDIEAGVKEEYIKYLSEKGDELSKKNPKVTVVFALEEE
B2: LC3A_147_481 (protein)
chain: MEVDIDVLVKNQAAADAFIAHVQAAAAELRAEGVEVDVDITREQLDPNTWYIEVRLRLRAPTAEAERAAAQRFVDSIDAFIEEHKDEILAALISVTEVEP
B3: LC3A_147_484 (protein)
chain: MRVYVDVLVDDEETAEELVRLMEATVEELRAQGIRVELRVEIEEVEPGVYFVEIEVEIEAETEEEEQAAAQRVIDALEAFDEANKDRVLGTLISVEREER
B4: LC3A_free_39_2215 (protein)
chain: SEAEIDALIRRIAEEGGVDYEYVKEKLLEIQKVGGLTPEQMLEIARAILEAVEAGADAREILEEILALTKELVAQGKTPEQIAEEILERIRDFRNLIPLD
B5: LC3A_28_749 (protein)
chain: SAIEKQLEEVIKKAKEAAKKGEPIVLTITVPGDADEEDIERVIKAMEEIAEILKDVKDQTIIVDIDGNLPEEYQNRLIDKAEEIEEKYPNVTVIIALDEE
B6: LC3A_free_39_2231 (protein)
chain: MEEEIEKVIKEIAEEAGIDYEYLREKMEEIKEVGGLSNEEMLEILKELLKAVKAGADAREILDEMLKITKELKAQGKSPEEILEAILEEIRDYRNLIPLD
B7: LC3A_28_676 (protein)
chain: SELEENLKKALEEAKEAAKAGEPVVITINIPGDATEEEVKKFIEKLEEIAKILKDVKGAAIVVNLSKDLKQEHRDKIIDKAEEINEKYPNVTVIIALEEE
B8: LC3A_3_1469 (protein)
chain: MHPLIKEAREALKKRGVSEETIEKIVKYLEKLAKYGVLEVAVETLKEALKNPNATEEKLLEIAEELLKLVEEEKISKEEAKEEGKVLLLELVEIEEIDEE
B9: LC3A_3_1754 (protein)
chain: MEERLKEIRERLEALGFSPEVIEAALEVAKLLLERGFEEAVEVLLEELAELKDLPDEIILDMLEDIKREIEEKDLNEEEVIEVIKEEARVARSESEIIEL
B10: LC3A_3_1761 (protein)
chain: MEEFIEKAEKELKELGADEELIKKAKEALKLLLERGLEETAEKFKEALKELLKKSKELAKQLAEDVLNLLKTSTLSPEELAKEVNSEINAALSESEIEEL
B11: LC3A_3_1858 (protein)
chain: MEEIKEEILELLRELGRSEETIKAAEELAEALIERGYEEALKTLLEELKELENASDELLLEMFKELLRLLKEENLNEEELIEAIKEEARIVKNEEEIIEL
B12: LC3A_3_1857 (protein)
chain: MEEIKKEILELLKKLGRSEETIKAAEELADALIKRGYKKALEKLLEELKKLKNASDELLLDMFKELLAALENEKLNEEELIKKIEEEAKIVKNEQEIIEL
B13: LC3A_74_2071 (protein)
chain: ALSVEEVDRLEELAARLLALIILSEEKGWFSPEEVAEARELRDQLLAVLRQQGALTEAVEGGIELEAELLALRLEEDPEAAKELLKETREEARALLARVS
B14: LC3A_127_207 (protein)
chain: EERKLLEEAERLAEEAIEALDKIPEEGEEARERAIRLLKELAELLKKVPSLKEALKDTQQAIEQLEAMKDLSPAEREEAREQVSMILDGILIEVESELLK
B15: LC3A_147_397 (protein)
chain: AEIIVDVLVKNTPEGKEVVEELIEKLKEVAEKYGKAEVKVEKEVIDENTLYLEITIKIEGISKEDAEKLGNDVADIVDEIDEKYKDIILASLLSIDIEEK
B16: LC3A_3_1605 (protein)
chain: MEELVEEQLERLRAAGFSEAVLEAARRALTALAEKGFEEAAKTLTDELLEAKDLPEEILVDALEEILYEVENKDLNEEEVIKLIKETFRVARLEAEIEEL
B17: LC3A_128_232 (protein)
chain: SELLEDLKEEATAAKAVAKELAAIPEVAEEAAATIAAAEALIALIEAGAPLEEIKAAAQALIAAARKLIAALEKNPNADRVLVNDLEIERANIEDLLEQL
B18: LC3A_28_996 (protein)
chain: SKIDEQIKKALEEAEKAAKAGEPVVITITISKDATQEDIDKVIETMEKIAEILKDIPGSAIVIDIEAGVSQELINKIIDHAEEIEKKYPNVTVIIALDED
B19: LC3A_free_8_2438 (protein)
chain: SNQEFVDKVVEMLDELEEELTKLMKEEGVDELDILELELEIGSTIAEVISNVDSSKEEILKILKEGLERILELAKELGEKIYKKAKELSEKILEEAESML
B20: LC3A_3_1835 (protein)
chain: LEEEVEELLEELREAGHSEEALEAVRELAEALRERGYEEALRTFIELLRELIDLPSELLLELAEEALELVEEEDLSEEELTERIKELARLYRNEAEIEEL
B21: LC3A_28_846 (protein)
chain: SKTEEDIEKALKEAKEAAKKGEPAVIELKVYKGDTEEEIEKIIEALEEIAEILKDLPNQAILINFEEVIDEEHQNKILDKAEEIEKKYPNVTVIIALPEE
B22: LC3A_28_1315 (protein)
chain: MKLEERFKKAIEEVRKAAAAGEPVVVTIEITAEEAKENLEKILELLEELAKEASKAPGATIIVDLDENVPAELRKKIADKADELEKKYPNVTVILAIEDK
B23: LC3A_free_46_2373 (protein)
chain: MEIDIDLYKEGMTEEEAKALAERVAEGIKKIAEELGLEVEVESEVVKNADGSYLVRVKAKIKAPTEEKANEAVKKIVDMMDKIAKETGAAVIISIEKIEP
B24: LC3A_3_1838 (protein)
chain: LEEKKKELLELLKKAGHSEETLKAVKETIDALLAKGYYEAAETFIELLKEDIDLPSEMLLELAKEVLELVETEDLSEEELTERIKELFRLYRNEYEIEEL
B25: LC3A_28_1330 (protein)
chain: SHIEEQLEAAEKAAEEALAKGEDALIEVEISGSTTLEEAEELMERLREIAKKYSPKIKVSIVINLSSSVSQEVIDLIAEKAEEIEKELPNVTVIIALDEE
B26: LC3A_17_595 (protein)
chain: REALRAELEALLAEAAALIAKLAELRPAAAPAAQARLAEAQAKLEAGDLRGAAETLRALADEIAAIFDELEEEGVEEAAVWAMEAGGVSLEAEGLLLKLD
B27: LC3A_free_0_2106 (protein)
chain: MTVVGEVLAITEKALTPEQLKKVKEEMEKIAKELEEEYGMKVEVTVKEVDGRTVFTLKFSKEGLSIEEAIEIVDEVADKLEEKLKELGADVTIYTSVYEE
B28: LC3A_free_46_2315 (protein)
chain: YIGNIIIDIYGVDEETAKKLVEEIKKKAKELAEKYGLELEIKVEIEQNEDGTTYVRIDITLKGEDKEKLEKAVNEIISEVEELAEKYGATAVISYEIEEE
B29: LC3A_28_1119 (protein)
chain: STADAIIAAAKAQVDAAVAAGEETVIEVHIPGSLSQEEVKAVAEEVAALVAAAAEKVKVSLVISLDASVSQEQIDIIADIAEALEKAHPNVNVIIALEER

Each binder was assayed against MAP1LC3A, Q9H492 (assay: median log2 fold change of GCK-ALFA target abundance (FLAG IP / Myc IP barcode read proportion) (log2 ratio); each designed protein is fused to an ALFA-tag nanobody in HEK293 cells to bring the named protein to FLAG-tagged glucokinase (GCK); Myc marks an untargeted standard; higher = target protein stabilised (more abundant)). Conditions: target protein: 3xFLAG-MCP-GCK-ALFA reporter; HEK293 landing pad (RPLP).
Outline: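 Binders fused to an ALFA nanobody were recombined as a library into HEK293 landing-pad cells, which were induced with 2 μg mL^−1 doxycycline and then transfected to express a FLAG-tagged target and a Myc-tagged standard. After 48 h, circular RNA barcodes recovered by anti-FLAG and anti-Myc immunoprecipitation of lysates were reverse transcribed, amplified and sequenced. Each binder's target abundance is the median log2 ratio of FLAG to Myc barcode read proportions, from barcodes present at ≥10^−7 in both replicates, binders carrying ≥3 barcodes per replicate, a 10^−6 pseudocount and pooled replicates.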

Row | Binder | median log2 fold change
1 | B1 | 0.237
2 | B2 | 0.0403
3 | B3 | -0.559
4 | B4 | 0.29
5 | B5 | -0.139
6 | B6 | 0.305
7 | B7 | 0.243
8 | B8 | 0.00392
9 | B9 | 0.238
10 | B10 | 0.226
11 | B11 | 0.217
12 | B12 | 0.117
13 | B13 | -0.0671
14 | B14 | 0.353
15 | B15 | -0.0409
16 | B16 | 0.175
17 | B17 | 0.266
18 | B18 | -0.185
19 | B19 | -0.119
20 | B20 | -0.314
21 | B21 | -0.293
22 | B22 | 0.302
23 | B23 | 0.708
24 | B24 | 0.174
25 | B25 | 0.151
26 | B26 | 0.135
27 | B27 | -0.0524
28 | B28 | 0.207
29 | B29 | 0.129

— the supplement of paper PMC12632987
